SMILES strings stand for the structures. In all, about 48,000 compounds went through this assay and about 550 (1.1%) were called active. Not shown: some 4% with an inconclusive outcome. Rule as the data show it: active = potency below about 15 µM; inconclusive = mostly about 16 µM to 33 µM; inactive = weaker than that. Some of the results follow.
Potency is read from the fitted curve at half-maximal effect.

For this test, the target named is Lysosomal acid glucosylceramidase (Homo sapiens) (UniProt P04062). Kind of test: Glucocerebrosidase.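 Also: the screen sought inhibitors.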 As to conditions: purified enzyme, resorufin glucoside fluorescence (screen aimed at inhibitors), 20 min; series mostly up to 77 µM. The method in brief: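 Wild-type enzyme at 0.2 nM final in 50mM citric acid/KH2PO4, 10mM sodium taurocholate, 0.01% tween-20, pH 5.9, with resorufin beta-D-glucopyranoside at 30 uM final. Compounds titrated, 20 min at RT, red fluorescence read; AC50 from titration.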
Sequence of UniProt P04062 (P04062 whole entry, looked up): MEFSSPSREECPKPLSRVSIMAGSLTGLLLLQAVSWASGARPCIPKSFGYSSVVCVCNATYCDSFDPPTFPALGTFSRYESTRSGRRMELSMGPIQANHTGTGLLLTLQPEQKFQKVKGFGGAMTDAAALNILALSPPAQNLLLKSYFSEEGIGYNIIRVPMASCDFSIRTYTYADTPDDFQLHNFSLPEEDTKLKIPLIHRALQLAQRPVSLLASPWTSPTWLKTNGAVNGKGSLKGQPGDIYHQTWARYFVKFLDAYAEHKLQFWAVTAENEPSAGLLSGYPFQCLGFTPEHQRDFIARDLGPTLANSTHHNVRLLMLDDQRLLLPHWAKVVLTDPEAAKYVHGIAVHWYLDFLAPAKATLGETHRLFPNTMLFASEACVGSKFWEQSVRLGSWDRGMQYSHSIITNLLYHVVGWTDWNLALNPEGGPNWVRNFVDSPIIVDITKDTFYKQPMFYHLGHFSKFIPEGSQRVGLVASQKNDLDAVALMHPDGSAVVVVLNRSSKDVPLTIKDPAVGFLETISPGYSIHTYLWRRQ
`CCOc1cccc(C(=O)N(Cc2ccco2)C2CCS(=O)(=O)C2)c1` (stereo unspecified): the Potency was inactive: > 76.9 µM.
Regarding `Cc1ccc(-n2c(N)c(C(=O)N3CCCCC3)sc2=S)cc1`, the Potency was inactive: > 76.9 µM.
Take `CCOC(=O)c1[nH]nc(C(=O)c2ccc(Br)cc2)c1O`: the Potency is inactive: > 76.9 µM.
With `Clc1ccccc1Nc1ncnc2c1nnn2Cc1ccccc1`, the Potency was inactive: > 76.9 µM.
Turning to `CCOC(=O)CSc1nnnn1-c1cc(OC)ccc1OC`, the Potency is inactive: > 76.9 µM.
Turning to `Cc1cccc(/N=C/c2c(O)c3ccccc3oc2=O)n1`, the Potency is inactive: > 76.9 µM.
Take `COc1cc(NC(=O)c2noc3c2CCC3)c(OC)cc1Cl`: the Potency is inactive: > 76.9 µM.
With `CN(CCNC(=O)c1cccc(N2CCCC2=O)c1)Cc1ccccc1`, the Potency was inactive: > 76.9 µM.
Take `COc1ccc(NC(=O)c2cnc(C)cn2)cc1-n1cnnn1`: the Potency was inactive: > 76.9 µM.
`Cc1cc(NC(=O)COc2cccc(Oc3ccccc3)c2)no1`: the Potency was inactive: > 76.9 µM.
Take `Clc1ccc(-c2noc(CN3CCCC3)n2)cc1`: the Potency is inactive: > 76.9 µM.
Turning to `Cc1ccc(Cl)cc1N1CCN(Cc2nnnn2Cc2ccco2)CC1`, the Potency is inactive: > 76.9 µM.
As for `Cc1cc2n(n1)C(c1ccc(O)cc1)Nc1ccccc1-2` (stereo unspecified), the Potency was inactive: > 76.9 µM.
As for `CCc1c(C)c2cc(Cl)c(O)c(CN(C)C)c2oc1=O`, the Potency is inactive: > 76.9 µM.
Take `CCOC(=O)c1cncc(NC(=O)c2ccccc2)c1`: the Potency is inactive: > 76.9 µM.
For the molecule `Cc1ccnc(SCCn2c(N3CCC(C)CC3)nc3c2c(=O)n(C)c(=O)n3C)n1`, the Potency was inactive: > 76.9 µM.
Turning to `CC(=O)c1cccc(NC(=O)C2CCCN(S(C)(=O)=O)C2)c1` (stereo unspecified), the Potency is inactive: > 76.9 µM.
`COc1ccccc1OCC(=O)Nc1nnc(-c2ccco2)s1`: the Potency is inactive: > 76.9 µM.
As to `CC(C)OC(=O)CSc1nc2cccnc2n1C1CCCCC1`, the Potency was inactive: > 76.9 µM.
For `CCCCN(C(=O)NC(=O)Nc1cc(C)ccc1C)S(C)(=O)=O` the value was inactive: > 76.9 µM; for `O=C(Cc1ccccc1F)Nc1nc(-c2cccs2)cs1`, inactive: > 76.9 µM.
Turning to `Nc1nonc1C(=O)NCCNC(=O)c1ccccc1F`, the Potency was inactive: > 76.9 µM.
For the molecule `CN=C(Nc1cc(C)nn1CCC#N)c1ccc(F)cc1`, the Potency was inactive: > 76.9 µM.
For `CCOc1ccc(C(=O)Nc2ccc(Cl)cn2)cc1Cl` the value was inactive: > 76.9 µM; for `COc1ccc(Cl)cc1-n1c(=S)sc2c(=O)[nH]c(SCC(=O)NCC3CCCO3)nc21` (stereo unspecified), inactive: > 76.9 µM.
As for `CCN1C(=O)N(C)C2(c3ccccc3)N(C)C(=O)N(C)C12c1ccccc1` (stereo unspecified), the Potency is inactive: > 76.9 µM.
The result for `O=C(CC1(O)C(=O)Nc2ccc(Br)cc21)c1ccc2c(c1)OCO2` (stereo unspecified) reads inactive: > 76.9 µM; that for `CCOC(=O)c1ccc(NC(=O)CSc2nnc(CNC(=O)c3c(F)cccc3Cl)o2)cc1`, inactive: > 76.9 µM; that for `CC(=O)NCC12CC3CC(C1)CC(C(=O)O)(C3)C2`, inactive: > 76.9 µM.
Regarding `Cc1nc(NCCN2CCOCC2)c2nnn(Cc3c(F)cccc3Cl)c2n1`, the Potency is inactive: > 76.9 µM.
With `C=CCOc1c(Br)cc(CNn2nnnc2N)cc1OCC`, the Potency is inactive: > 76.9 µM.
Regarding `Cc1cc(=S)cc(C)n1CCCO`, the Potency is inactive: > 76.9 µM.
On to `CC1=C(C(=O)NCCN2CCN(C)CC2)C2(CCC(C)CC2)OC1=O` (stereo unspecified), for which the Potency is inactive: > 76.9 µM.
As to `COc1ccc(CC(=O)Nc2c3c(nn2-c2cccc(C)c2C)CS(=O)(=O)C3)cc1`, the Potency was inactive: > 76.9 µM.
`N#Cc1c(NC(=O)c2nc3ncccn3n2)sc2c1CCCCC2`: the Potency is inactive: > 76.9 µM.
Consider `COCCCNC(=O)CN(c1cc(OC)ccc1OC)S(=O)(=O)c1ccccc1`, for which the Potency was inactive: > 76.9 µM.
As for `CCOC(=O)c1cc(S(=O)(=O)NC2CCN(C(=O)OCC)CC2)cn1C`, the Potency was inactive: > 76.9 µM.
For the molecule `O=C(CN1C(=O)c2ccccc2S1(=O)=O)N1CCc2ccccc21`, the Potency is inactive: > 76.9 µM.
Take `CCOC(=O)c1[nH]c(C)c(/C(O)=C2\C(=O)C(=O)N(CCN(C)C)C2c2ccc(C)o2)c1C` (stereo unspecified): the Potency is inactive: > 76.9 µM.
For `Cc1ccc2[nH]c3c(=O)n(CCCN4CCOCC4)cnc3c2c1` the value was inactive: > 76.9 µM.
As for `CCOCCCNCc1ccc(OC)c(OC)c1`, the Potency was inactive: > 76.9 µM.
For `Cc1cc(C)n2nc(C(=O)Nc3cccnc3)nc2n1` the value was inactive: > 76.9 µM; for `Cc1cc(=O)cc(C)n1-c1ccccc1N1CCOCC1`, inactive: > 76.9 µM.
For `COC(=O)C1=C(N)OC2=C(C(=O)CCC2)C1c1cccs1` (stereo unspecified), the Potency is inactive: > 76.9 µM.
As to `COc1ccccc1NC(=O)C(C)Sc1nnnn1C` (stereo unspecified), the Potency is inactive: > 76.9 µM.
As to `CC1CCCN(S(=O)(=O)c2ccc(NC(=O)Cn3nnc(-c4ccccc4F)n3)cc2)C1` (stereo unspecified), the Potency was inactive: > 76.9 µM.
The result for `CCOCCCNC(=O)c1[nH]c(C)c(C(C)=O)c1C` reads inactive: > 76.9 µM.
With `Cn1c(CN2CCOCC2)nc2cc(NC(=O)c3ccc(Cl)cc3)ccc21`, the Potency result was “inactive”.
Take `COc1ccc(-c2nc(CS(=O)CC(=O)NCCCN3CC(C)CC(C)C3)c(C)o2)cc1OC` (stereo unspecified): the Potency is inactive: > 76.9 µM.
The result for `CCOC(=O)C1CCCN(C(=O)c2ccc3c(c2)OCO3)C1` (stereo unspecified) reads inactive: > 76.9 µM.
Consider `Cc1nc(NCC2CCCO2)[nH]c(=O)c1CCC(C)C` (stereo unspecified), for which the Potency was inactive: > 76.9 µM.
`O=c1c2ccccc2nnn1CSc1nnc(Nc2ccccc2)s1`: the Potency is inactive: > 76.9 µM.
`CC(=O)OC(C(=O)n1nc(C)cc1C)c1ccccc1` (stereo unspecified): the Potency was inactive: > 76.9 µM.
Turning to `COc1ccc(CCNC(=O)c2nnn(-c3ccccc3OC)c2N)cc1OC`, the Potency was inactive: > 76.9 µM.
For the molecule `Cc1c(C(=O)Nc2ccc3oc(-c4cccnc4)nc3c2)oc2ccccc12`, the Potency is inactive: > 76.9 µM.
With `CN(C)/C=C1\C(=O)c2ccc(N(C)C)nc2CC1c1ccccc1` (stereo unspecified), the Potency is inactive: > 76.9 µM.
`C=C(C)COc1ccc(-c2nc(N)ncc2Oc2ccc(OC)cc2)c(O)c1`: the Potency is inactive: > 76.9 µM.
For the molecule `COc1ccc2[nH]c(=O)c(CN(CC3CCCO3)C(=O)Nc3ccc(F)cc3)cc2c1` (stereo unspecified), the Potency is inactive: > 76.9 µM.
Turning to `CC(C)COc1ccc(-c2nnc(-c3ccncc3)o2)cc1`, the Potency is inactive: > 76.9 µM.
With `CCCCNC(=O)CCC(=O)Nc1ncc(-c2ccc(C)cc2)n1C`, the Potency is inactive: > 76.9 µM.
As for `Cc1occc1-c1nnc(SCC(=O)NCc2ccc3c(c2)OCO3)n1CC(C)C`, the Potency was inactive: > 76.9 µM.
In the case of `O=C(NCC1COc2ccccc2O1)Nc1ccccc1F` (stereo unspecified), the Potency is inactive: > 76.9 µM.
`COc1ccc(C2C(C#N)=C(N)Oc3n[nH]c(-c4ccccn4)c32)c(OC)c1OC` (stereo unspecified): the Potency is inactive: > 76.9 µM.
Consider `CCOC(=O)c1ccc(S(=O)(=O)Nc2ccccc2-c2nnn(CC)n2)cc1`, for which the Potency is inactive: > 76.9 µM.
Turning to `COC(=O)CNC(=O)c1ccc(=O)oc1`, the Potency is inactive: > 76.9 µM.
With `CCCN1Cc2cccc(C(=O)Nc3ccc(CN4CCCC4)cc3)c2C1=O`, the Potency was inactive: > 15.4 µM.
Regarding `Cc1ccc(C(=O)OCC(=O)NCc2ccc3c(c2)OCO3)s1`, the Potency was inactive: > 76.9 µM.
The result for `CCOC(=O)c1ccc2[nH]cc(C(C)=O)c(=O)c2c1` reads inactive: > 76.9 µM; that for `CNc1nc(NC)nc(-n2c(C(F)(F)F)nc3ccccc32)n1`, inactive: > 76.9 µM.
Turning to `O=C(CC(NS(=O)(=O)c1ccc(Cl)cc1)c1ccco1)NCc1ccco1` (stereo unspecified), the Potency was inactive: > 76.9 µM.
Regarding `Cn1cnnc1SCC(=O)OCN1C(=O)c2ccccc2C1=O`, the Potency was inactive: > 76.9 µM.
For `Brc1c(CSc2nnc(-c3ccco3)o2)nc2ccccn12` the value was inactive: > 76.9 µM.
On to `CCCOc1ccc(C(CC(=O)O)NC(=O)c2ccc3c(c2)OCO3)cc1` (stereo unspecified), for which the Potency was inactive: > 76.9 µM.
As to `CC(=O)N1CC=C2C(C#N)=C(N)C(C#N)(C#N)C(CCc3ccccc3)C2C1` (stereo unspecified), the Potency is inactive: > 76.9 µM.
`COc1ccc(OC)c(NC(=O)CSc2nc3c(c(=O)n(C)c(=O)n3C)n2C)c1`: the Potency was inactive: > 76.9 µM.
With `CCN1CCCC1CNC(=O)Cn1cnc2ccc(S(=O)(=O)N3CCC(C)CC3)cc2c1=O` (stereo unspecified), the Potency is inactive: > 76.9 µM.
With `CCOC(=O)Nc1cccc(NC(=O)c2cc(OC)cc(OC)c2)c1`, the Potency was inactive: > 76.9 µM.
Turning to `Cc1cc2cc(CNC(=O)c3cc4ccccc4o3)ccc2n1C`, the Potency was inactive: > 76.9 µM.
`O=C(CN1C(=O)CSc2ccccc21)N1CCc2ccccc21`: the Potency is inactive: > 76.9 µM.
Turning to `COc1ccc(-c2ccc(SCC(=O)N3CCOCC3)nn2)cc1`, the Potency is inactive: > 76.9 µM.
`Cc1nc(NC2=NCN(CCCN3CCOCC3)CN2)nc2c(C)cccc12`: the Potency is inactive: > 76.9 µM.
Consider `N#CC1=C(N)C(C#N)(C#N)[C@H](c2ccsc2)[C@H]2COCC=C12`, for which the Potency is inactive: > 76.9 µM.
`Cc1ccc2cc(C#N)c(SCC(=O)NCc3ccco3)nc2c1`: the Potency is inactive: > 76.9 µM.
The result for `Cc1ccc2c(CC(=O)N3CCc4ccccc43)coc2c1` reads inactive: > 76.9 µM; that for `CCC(C)NC(=O)C1CCCN(S(=O)(=O)c2ccc(-n3cnnn3)cc2)C1` (stereo unspecified), inactive: > 76.9 µM.
`O=C1CC2CS(=O)(=O)CC2N1c1ccc(Cl)cc1Cl` (stereo unspecified): the Potency was inactive: > 76.9 µM.
For `CCN(CC)C(=O)C1CCN(Cc2cccc(OCc3ccccc3)c2)CC1`, the Potency is inactive: > 76.9 µM.
The result for `COc1ccc(CN(Cc2ccccn2)C(=O)CN2C(=O)C(C)Oc3ccccc32)cc1` (stereo unspecified) reads inactive: > 76.9 µM; that for `Cn1c(=O)c2ncn(CC(=O)NCCC3=CCCCC3)c2n(C)c1=O`, inactive: > 76.9 µM.
Consider `CCc1ccc(N(C(C)=O)C2C=CS(=O)(=O)C2)cc1` (stereo unspecified), for which the Potency was inactive: > 76.9 µM.
As to `O=c1c2ccccc2nnn1CSc1nnc(-c2ccco2)o1`, the Potency was inactive: > 76.9 µM.

These data come from PubChem BioAssay AID360 (National Center for Advancing Translational Sciences (NCATS), 2006).
